Source: publication PMC8413330
These are yes or no findings as the source states them, for the method shown. In cells and extracts the contact can be indirect. Some results given as binding are weak or reduced against the parent protein; the word gives no strength. For part of these data: Tags and fused reporters may be left off the sequences shown. Blank lines part the entries; values can stand above or below the binder they belong to.

Chains of the proteins cited; added tags and fusions are not shown.
UniProt P51608: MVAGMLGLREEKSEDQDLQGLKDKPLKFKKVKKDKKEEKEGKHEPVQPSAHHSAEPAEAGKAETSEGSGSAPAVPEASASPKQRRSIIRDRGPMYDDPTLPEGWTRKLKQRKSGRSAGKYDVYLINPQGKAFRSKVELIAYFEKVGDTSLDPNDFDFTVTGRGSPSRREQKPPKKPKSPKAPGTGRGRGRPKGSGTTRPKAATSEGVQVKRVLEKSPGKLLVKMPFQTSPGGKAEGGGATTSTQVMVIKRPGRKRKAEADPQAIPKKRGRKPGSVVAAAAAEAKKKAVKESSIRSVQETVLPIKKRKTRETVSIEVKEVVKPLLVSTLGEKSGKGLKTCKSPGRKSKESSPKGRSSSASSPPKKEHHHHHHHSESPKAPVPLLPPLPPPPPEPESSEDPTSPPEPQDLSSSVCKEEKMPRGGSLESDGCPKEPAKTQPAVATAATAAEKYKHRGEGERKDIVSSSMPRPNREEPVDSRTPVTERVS
UniProt Q9Y265: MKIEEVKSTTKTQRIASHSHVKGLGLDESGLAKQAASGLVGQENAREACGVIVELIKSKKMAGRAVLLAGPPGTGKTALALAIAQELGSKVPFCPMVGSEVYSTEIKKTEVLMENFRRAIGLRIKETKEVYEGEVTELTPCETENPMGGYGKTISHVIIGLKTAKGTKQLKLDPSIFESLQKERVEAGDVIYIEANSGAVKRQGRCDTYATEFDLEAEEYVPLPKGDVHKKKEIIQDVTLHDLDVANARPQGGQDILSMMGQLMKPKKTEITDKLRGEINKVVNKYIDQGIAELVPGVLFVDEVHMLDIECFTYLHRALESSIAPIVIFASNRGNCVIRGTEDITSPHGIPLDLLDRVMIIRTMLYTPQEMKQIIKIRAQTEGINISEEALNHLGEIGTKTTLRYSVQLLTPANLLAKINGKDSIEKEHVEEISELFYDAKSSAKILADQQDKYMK

Assays:
HA-MeCP2 [1] = target: HA-MeCP2 (UniProt P51608); test: co-IP; nuclear extracts (500 ug, NE-PER) of transiently co-transfected HEK293 cells (48 h); HA antibody or isotype-matched IgG with protein A and G magnetic beads at 4 °C; washes in 150 mM NaCl, 10 mM HEPES pH 7.5, 10 mM MgCl2, 0.5% Igepal; WB with the Flag or HA antibody
HA-MeCP2 [2] = target: HA-MeCP2 (UniProt P51608); test: proximity ligation; Duolink In Situ Red kit on fixed, permeabilized HEK293 cells transiently co-transfected; Flag and HA antibodies; fluorescence microscopy
HA-EMD = target: T1, HA-EMD (UniProt P50402); test: co-IP; nuclear extracts (500 ug, NE-PER) of transiently co-transfected HEK293 cells (48 h); HA antibody or isotype-matched IgG with protein A and G magnetic beads at 4 °C; washes in 150 mM NaCl, 10 mM HEPES pH 7.5, 10 mM MgCl2, 0.5% Igepal; WB with the Flag or HA antibody
T1 sequence: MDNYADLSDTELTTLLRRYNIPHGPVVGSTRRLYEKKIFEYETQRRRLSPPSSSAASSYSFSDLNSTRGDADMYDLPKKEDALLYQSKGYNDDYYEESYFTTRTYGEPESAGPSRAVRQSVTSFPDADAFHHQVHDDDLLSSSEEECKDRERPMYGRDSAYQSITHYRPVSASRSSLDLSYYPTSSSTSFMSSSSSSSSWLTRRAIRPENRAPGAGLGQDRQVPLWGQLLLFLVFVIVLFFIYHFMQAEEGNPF

[3] = target: T2, HA-MAZ (human (cDNA library from MCF7 cells)) (UniProt P56270); test: as above
T2 sequence: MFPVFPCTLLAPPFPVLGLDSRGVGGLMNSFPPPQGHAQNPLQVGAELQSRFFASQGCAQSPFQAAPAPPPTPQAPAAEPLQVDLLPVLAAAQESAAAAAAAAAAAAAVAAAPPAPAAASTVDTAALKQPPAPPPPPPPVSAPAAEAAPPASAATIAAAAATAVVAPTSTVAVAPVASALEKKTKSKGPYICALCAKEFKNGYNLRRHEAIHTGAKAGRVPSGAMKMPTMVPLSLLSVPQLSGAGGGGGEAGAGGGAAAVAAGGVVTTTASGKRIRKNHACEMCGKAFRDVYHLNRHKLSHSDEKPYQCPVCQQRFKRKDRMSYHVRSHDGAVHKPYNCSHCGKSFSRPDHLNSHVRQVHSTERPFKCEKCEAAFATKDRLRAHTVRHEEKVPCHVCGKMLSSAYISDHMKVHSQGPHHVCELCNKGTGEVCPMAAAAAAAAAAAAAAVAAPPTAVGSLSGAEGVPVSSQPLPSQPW

HA-MAZΔN = target: T3, HA-MAZΔN (UniProt P56270); test: as above
T3 sequence: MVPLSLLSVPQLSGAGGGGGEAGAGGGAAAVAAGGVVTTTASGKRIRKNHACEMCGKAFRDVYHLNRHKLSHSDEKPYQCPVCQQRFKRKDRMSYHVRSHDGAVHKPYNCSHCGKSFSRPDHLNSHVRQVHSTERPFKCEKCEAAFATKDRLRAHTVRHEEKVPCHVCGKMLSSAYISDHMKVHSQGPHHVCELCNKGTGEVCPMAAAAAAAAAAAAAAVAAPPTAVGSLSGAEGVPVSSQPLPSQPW

[4] = target: T4, LAP2α (Thymopoietin; Lamina-Associated Polypeptide 2, Isoform alpha), transfected (UniProt P42166); test: as above
T4 sequence: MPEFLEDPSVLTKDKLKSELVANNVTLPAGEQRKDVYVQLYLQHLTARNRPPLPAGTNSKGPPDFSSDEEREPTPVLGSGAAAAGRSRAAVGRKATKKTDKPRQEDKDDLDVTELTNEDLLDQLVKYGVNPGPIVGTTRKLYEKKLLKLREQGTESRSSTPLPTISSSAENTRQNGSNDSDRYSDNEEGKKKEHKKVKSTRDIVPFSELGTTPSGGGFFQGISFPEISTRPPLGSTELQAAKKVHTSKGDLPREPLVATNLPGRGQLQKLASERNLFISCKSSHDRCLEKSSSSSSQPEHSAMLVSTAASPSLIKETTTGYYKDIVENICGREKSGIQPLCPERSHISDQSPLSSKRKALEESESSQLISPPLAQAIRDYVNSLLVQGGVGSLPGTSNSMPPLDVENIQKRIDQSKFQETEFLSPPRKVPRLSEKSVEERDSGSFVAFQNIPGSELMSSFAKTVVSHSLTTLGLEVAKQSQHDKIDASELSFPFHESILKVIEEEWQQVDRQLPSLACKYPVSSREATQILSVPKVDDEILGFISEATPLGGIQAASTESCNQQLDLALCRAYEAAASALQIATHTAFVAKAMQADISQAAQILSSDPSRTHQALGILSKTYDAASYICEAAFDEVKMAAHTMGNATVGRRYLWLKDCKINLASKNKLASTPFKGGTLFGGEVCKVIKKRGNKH

[5] = target: RUVBL1 (RuvB Like AAA ATPase 1), transfected (UniProt Q9Y265); test: as above
[6] = target: T5, SNW1 (SNW Domain Containing 1), transfected (UniProt Q13573); test: as above
T5 sequence: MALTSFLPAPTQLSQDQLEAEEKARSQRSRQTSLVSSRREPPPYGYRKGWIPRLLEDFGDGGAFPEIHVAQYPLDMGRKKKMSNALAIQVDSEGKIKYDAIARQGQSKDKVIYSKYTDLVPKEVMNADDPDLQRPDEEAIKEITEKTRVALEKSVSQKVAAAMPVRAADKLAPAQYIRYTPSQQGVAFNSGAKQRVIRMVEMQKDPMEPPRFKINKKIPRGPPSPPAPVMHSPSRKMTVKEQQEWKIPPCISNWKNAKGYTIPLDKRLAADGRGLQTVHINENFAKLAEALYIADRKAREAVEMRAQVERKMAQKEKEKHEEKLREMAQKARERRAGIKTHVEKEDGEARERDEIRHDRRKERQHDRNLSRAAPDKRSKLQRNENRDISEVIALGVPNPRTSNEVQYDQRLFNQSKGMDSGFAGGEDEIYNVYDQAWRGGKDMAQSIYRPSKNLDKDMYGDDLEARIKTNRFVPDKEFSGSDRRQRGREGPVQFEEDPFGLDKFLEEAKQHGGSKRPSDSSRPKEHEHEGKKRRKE

B1: 3F-CXXC5Δ_(1-100) (domain or fragment, UniProt Q7LFL8 101-322)
chain: SADKATAAAAAASLLANGHDLAAAMAVDKSNPTSKHKSGAVASLLSKAERATELAAEGQLTLQQFAQSTEMLKRVVQEHLPLMSEAGAGLPDMEAVAGAEALNGQSDFPYLGAFPINPGLFIMTPAGVFLAESALHMAGLAEYPMQGELASAISSGKKKRKRCGMCAPCRRRINCEQCSSCRNRKTGHQICKFRKCEELKKKPSAALEKVMLPTGAAFRWFQ
binding (HA-MeCP2 [1]): binds

B2: 3F-CXXC5Δ_(100-149) (protein, UniProt Q7LFL8)
chain: MSSLGGGSQDAGGSSSSSTNGSGGSGSSGPKAGAADKSAVVAAAAPASVADDTPPPERRNKSGIISEPLNKSLRRSRPLSHYSSFGSSGGSGGGSMMGGRATELAAEGQLTLQQFAQSTEMLKRVVQEHLPLMSEAGAGLPDMEAVAGAEALNGQSDFPYLGAFPINPGLFIMTPAGVFLAESALHMAGLAEYPMQGELASAISSGKKKRKRCGMCAPCRRRINCEQCSSCRNRKTGHQICKFRKCEELKKKPSAALEKVMLPTGAAFRWFQ
binding (HA-MeCP2 [1]): binds

B4: 3F-CXXC5 (protein, UniProt Q7LFL8 1-322)
chain: MSSLGGGSQDAGGSSSSSTNGSGGSGSSGPKAGAADKSAVVAAAAPASVADDTPPPERRNKSGIISEPLNKSLRRSRPLSHYSSFGSSGGSGGGSMMGGESADKATAAAAAASLLANGHDLAAAMAVDKSNPTSKHKSGAVASLLSKAERATELAAEGQLTLQQFAQSTEMLKRVVQEHLPLMSEAGAGLPDMEAVAGAEALNGQSDFPYLGAFPINPGLFIMTPAGVFLAESALHMAGLAEYPMQGELASAISSGKKKRKRCGMCAPCRRRINCEQCSSCRNRKTGHQICKFRKCEELKKKPSAALEKVMLPTGAAFRWFQ
binding (HA-MeCP2 [2]): binds
binding (HA-EMD): binds
binding [3]: binds
binding (HA-MAZΔN): binds
binding (HA-MeCP2 [1]): binds
binding [4]: no binding
binding [5]: no binding
binding [6]: no binding

Results, then the binder that gave them:

binding (HA-MeCP2 [1]): binds
B3: 3F-CXXC5Δ_(200-249) (protein, UniProt Q7LFL8)
chain: MSSLGGGSQDAGGSSSSSTNGSGGSGSSGPKAGAADKSAVVAAAAPASVADDTPPPERRNKSGIISEPLNKSLRRSRPLSHYSSFGSSGGSGGGSMMGGESADKATAAAAAASLLANGHDLAAAMAVDKSNPTSKHKSGAVASLLSKAERATELAAEGQLTLQQFAQSTEMLKRVVQEHLPLMSEAGAGLPDMEAVAGAASAISSGKKKRKRCGMCAPCRRRINCEQCSSCRNRKTGHQICKFRKCEELKKKPSAALEKVMLPTGAAFRWFQ

binding (HA-MeCP2 [1]): binds
B5: 3F-CXXC5Δ_(150-199) (protein, UniProt Q7LFL8)
chain: MSSLGGGSQDAGGSSSSSTNGSGGSGSSGPKAGAADKSAVVAAAAPASVADDTPPPERRNKSGIISEPLNKSLRRSRPLSHYSSFGSSGGSGGGSMMGGESADKATAAAAAASLLANGHDLAAAMAVDKSNPTSKHKSGAVASLLSKAEEALNGQSDFPYLGAFPINPGLFIMTPAGVFLAESALHMAGLAEYPMQGELASAISSGKKKRKRCGMCAPCRRRINCEQCSSCRNRKTGHQICKFRKCEELKKKPSAALEKVMLPTGAAFRWFQ
